Measured values: the supplement of paper PMC4604168 (melanoma cell lines)
The other results are listed elsewhere or left out. Many values rest on one well or one pass, so single values are uncertain.

What was measured:
Test in all cases: cell count relative to DMSO control; melanoma cells; higher = more viable cells
[1] = system: WM115; conditions: library dose: low library concentration; 72 h
[2] = system: WM1716; conditions: library dose: low library concentration; 72 h
[3] = system: WM1745; conditions: library dose: low library concentration; 72 h
[4] = system: WM3526; conditions: library dose: low library concentration; 72 h
[5] = system: WM3619; conditions: library dose: low library concentration; 72 h
[6] = system: WM451Lu; conditions: library dose: low library concentration; 72 h
[7] = system: 501Mel; conditions: library dose: standard library concentration; 72 h
[8] = system: A101D; conditions: library dose: standard library concentration; 72 h
[9] = system: A2058; conditions: library dose: standard library concentration; 72 h
[10] = system: A375; conditions: library dose: standard library concentration; 72 h

SMILES | cell count [1] | cell count [2] | cell count [3] | cell count [4] | cell count [5] | cell count [6] | cell count [7] | cell count [8] | cell count [9] | cell count [10]
O=C(CCCCCCC(=O)Nc1ccccc1)NO [vorinostat] + O=C(O)C(=O)Nc1sc2c(c1C(=O)O)CCNC2 [TCS401] (first compound 0.08 µM, partner dose 1.66667 µM) | 97.3% | 90.1% | 100% | 83.5% | 92.7% | 92.1% |  |  |  | 
OCc1c[nH]c2ccccc12 [Indole-3-carbinol] + c1cc(-c2cnn3cc(-c4ccc(OCCN5CCCCC5)cc4)cnc23)ccn1 [Dorsomorphin] (first compound 0.8 µM, partner dose 0.4 µM) | 105% | 98.5% | 93.4% | 108% | 98.3% | 95% |  |  |  | 
C#Cc1cccc(Nc2ncnc3cc(OCCOC)c(OCCOC)cc23)c1 [erlotinib] + C=CCn1c(=O)c2cnc(Nc3ccc(N4CCN(C)CC4)cc3)nc2n1-c1cccc(C(C)(C)O)n1 [MK1775] (first compound 0.8 µM, partner dose 0.02 µM) | 76.5% | 69.6% | 62.7% | 96.3% | 47.3% | 134% |  |  |  | 
Clc1ccc(Nc2nnc(Cc3ccncc3)c3ccccc23)cc1 [vatalanib] + OCCn1cc(-c2cnc3nnn(Cc4ccc5ncccc5c4)c3n2)cn1 [PF04217903] (first compound 2 µM, partner dose 1 µM) | 91.7% | 83.8% | 126% | 80.3% | 56.6% | 97.2% |  |  |  | 
C#Cc1cccc(Nc2ncnc3cc(OCCOC)c(OCCOC)cc23)c1 [erlotinib] + Cc1cc(N2CCOCC2)cc2[nH]c(-c3c(NC[C@@H](O)c4cccc(Cl)c4)cc[nH]c3=O)nc12 [BMS536924] (first compound 0.8 µM, partner dose 0.2 µM) | 89.9% | 105% | 54.5% | 66.5% | 112% | 108% |  |  |  | 
C#Cc1cccc(Nc2ncnc3cc(OCCOC)c(OCCOC)cc23)c1 [erlotinib] + Oc1cc(-c2nc(-c3ccccc3)[nH]c2-c2ccncc2)ccc1Cl [L779450] (first compound 0.8 µM, partner dose 0.2 µM) | 88% | 98.5% | 72.9% | 72.7% | 64.8% | 106% |  |  |  | 
Cn1c(Nc2ccc(C(F)(F)F)cc2)nc2cc(Oc3ccnc(-c4ncc(C(F)(F)F)[nH]4)c3)ccc21 + CCN(CC)CCCCNc1ncc2cc(-c3cc(OC)cc(OC)c3)c(NC(=O)NC(C)(C)C)nc2n1 [PD173074] (first compound 0.08 µM, partner dose 0.1 µM) | 47.9% | 82.6% | 71.5% | 61.8% | 60.9% | 108% |  |  |  | 
OCc1c[nH]c2ccccc12 [Indole-3-carbinol] + O=C(O)c1ccc(-c2c[nH]c3ncc(-c4ccccc4)cc23)cc1C1CCCC1 [GSK650394] (first compound 0.8 µM, partner dose 0.16 µM) | 90.4% | 92% | 94.9% | 104% | 85.9% | 94.3% |  |  |  | 
COCC[n+]1c2c(n(Cc3cnccn3)c1C)C(=O)c1ccccc1C2=O + C[C@@H]1CCN(C(=O)CC#N)C[C@@H]1N(C)c1ncnc2[nH]ccc12 [CP690550] (first compound 0.0004 µM, partner dose 1 µM) | 79.8% | 104% | 90.3% | 104% | 103% | 36.1% |  |  |  | 
Clc1ccc(Nc2nnc(Cc3ccncc3)c3ccccc23)cc1 [vatalanib] + O=C(O)C(=O)Nc1sc2c(c1C(=O)O)CCNC2 [TCS401] (first compound 2 µM, partner dose 1.66667 µM) | 102% | 97.3% | 83.8% | 107% | 112% | 95.7% |  |  |  | 
Nc1cccc2c1CN(C1CCC(=O)NC1=O)C2=O (stereo not given) [lenalidomide] + COc1cc(N2CCC(N3CCN(C)CC3)CC2)ccc1Nc1ncc(Cl)c(Nc2ccccc2S(=O)(=O)C(C)C)n1 [NVP-TAE684] (first compound 1 µM, partner dose 0.08 µM) | 85.4% | 103% | 70.8% | 80.4% | 136% | 103% |  |  |  | 
O=C(CCCCCCC(=O)Nc1ccccc1)NO [vorinostat] + COc1ccc2c(c1)CCC1C2CCC2(C)C(NCCCCCCN3C(=O)C=CC3=O)CCC12 [U73122] (first compound 0.08 µM, partner dose 0.4 µM) | 97.3% | 108% | 94.4% | 84% | 114% | 90% |  |  |  | 
Clc1ccc(Nc2nnc(Cc3ccncc3)c3ccccc23)cc1 [vatalanib] + CC1(C)NC(=O)N(c2ccc([N+](=O)[O-])c(C(F)(F)F)c2)C1=O [nilutamide] (first compound 2 µM, partner dose 1 µM) | 86.3% | 85.8% | 83.1% | 77.5% | 97.5% | 82.9% |  |  |  | 
O=C(CCCCCCC(=O)Nc1ccccc1)NO [vorinostat] + CO[C@@H]1[C@H](N(C)C(=O)c2ccccc2)C[C@H]2O[C@]1(C)n1c3ccccc3c3c4c(c5c6ccccc6n2c5c31)C(=O)NC4 [Midostaurin] (first compound 0.08 µM, partner dose 0.08 µM) | 66.3% | 92.8% | 82.2% | 88.4% | 85.3% | 76.9% |  |  |  | 
OCc1c[nH]c2ccccc12 [Indole-3-carbinol] + N#Cc1c(O)c2c(-c3ccc(-c4ccccc4O)cc3)csc2[nH]c1=O [A769662] (first compound 4 µM, partner dose 10 µM) |  |  |  |  |  |  | 88.2% | 84% | 95.7% | 92.7%
Cn1c(Nc2ccc(C(F)(F)F)cc2)nc2cc(Oc3ccnc(-c4ncc(C(F)(F)F)[nH]4)c3)ccc21 + COc1ccc(-c2ccc3c(N4CCOCC4)nc(N4C[C@@H](C)O[C@@H](C)C4)nc3n2)cc1CO [KU0063794] (first compound 0.4 µM, partner dose 0.1 µM) |  |  |  |  |  |  | 52.7% | 52.7% | 54.1% | 80.7%
Cn1c(Nc2ccc(C(F)(F)F)cc2)nc2cc(Oc3ccnc(-c4ncc(C(F)(F)F)[nH]4)c3)ccc21 + Cc1cc([N+](=O)[O-])ccc1NS(=O)(=O)c1cc(Cl)ccc1Cl [FH535] (first compound 0.4 µM, partner dose 5 µM) |  |  |  |  |  |  | 50.3% | 48.4% | 55.7% | 65.4%
O=C(CCCCCCC(=O)Nc1ccccc1)NO [vorinostat] + COc1ccc(COc2ccc(Cc3cnc(N)nc3N)cc2OC)cc1 [GW2580] (first compound 0.4 µM, partner dose 5 µM) |  |  |  |  |  |  | 67.6% | 116% | 88.5% | 118%
Cn1c(Nc2ccc(C(F)(F)F)cc2)nc2cc(Oc3ccnc(-c4ncc(C(F)(F)F)[nH]4)c3)ccc21 + CC(C)CCN1c2nc(Nc3cc(F)c(O)c(F)c3)ncc2N(C)C(=O)C1C [BID1870] (first compound 0.4 µM, partner dose 1 µM) |  |  |  |  |  |  | 34.5% | 54.7% | 77.7% | 78.1%
Clc1ccc(Nc2nnc(Cc3ccncc3)c3ccccc23)cc1 [vatalanib] + COC(=O)c1sccc1S(=O)(=O)Nc1ccc(Nc2ccccc2)cc1OC [GSK0660] (first compound 10 µM, partner dose 5 µM) |  |  |  |  |  |  | 86.1% | 92.2% | 89.9% | 94.3%
Cn1c(Nc2ccc(C(F)(F)F)cc2)nc2cc(Oc3ccnc(-c4ncc(C(F)(F)F)[nH]4)c3)ccc21 + COc1ccc(COc2ccc(Cc3cnc(N)nc3N)cc2OC)cc1 [GW2580] (first compound 0.4 µM, partner dose 5 µM) |  |  |  |  |  |  | 33.4% | 63.9% | 70.7% | 88.5%
Nc1cccc2c1CN(C1CCC(=O)NC1=O)C2=O (stereo not given) [lenalidomide] + O=C(O)C(=O)Nc1sc2c(c1C(=O)O)CCNC2 [TCS401] (first compound 5 µM, partner dose 8.33333 µM) |  |  |  |  |  |  | 93.9% | 103% | 116% | 172%
C#Cc1cccc(Nc2ncnc3cc(OCCOC)c(OCCOC)cc23)c1 [erlotinib] + O=c1cc(-c2cccc3c2Sc2ccccc2S3)oc(N2CCOCC2)c1 [KU55933] (first compound 4 µM, partner dose 5 µM) |  |  |  |  |  |  | 83.2% | 76% | 74.3% | 128%
O=C(CCCCCCC(=O)Nc1ccccc1)NO [vorinostat] + CCN(CC)CCCCNc1ncc2cc(-c3cc(OC)cc(OC)c3)c(NC(=O)NC(C)(C)C)nc2n1 [PD173074] (first compound 0.4 µM, partner dose 0.5 µM) |  |  |  |  |  |  | 47.7% | 83.9% | 97.1% | 133%
Clc1ccc(Nc2nnc(Cc3ccncc3)c3ccccc23)cc1 [vatalanib] + Oc1cc(-c2nc(-c3ccccc3)[nH]c2-c2ccncc2)ccc1Cl [L779450] (first compound 10 µM, partner dose 1 µM) |  |  |  |  |  |  | 62.2% | 55.8% | 74.6% | 58%
O=C(CCCCCCC(=O)Nc1ccccc1)NO [vorinostat] + N#Cc1c(O)c2c(-c3ccc(-c4ccccc4O)cc3)csc2[nH]c1=O [A769662] (first compound 0.4 µM, partner dose 10 µM) |  |  |  |  |  |  | 67.2% | 64.7% | 79.9% | 102%
OCc1c[nH]c2ccccc12 [Indole-3-carbinol] + CCN(CC)CCCCNc1ncc2cc(-c3cc(OC)cc(OC)c3)c(NC(=O)NC(C)(C)C)nc2n1 [PD173074] (first compound 4 µM, partner dose 0.5 µM) |  |  |  |  |  |  | 108% | 93.6% | 102% | 118%
Clc1ccc(Nc2nnc(Cc3ccncc3)c3ccccc23)cc1 [vatalanib] + COc1ccc(-c2ccc3c(N4CCOCC4)nc(N4C[C@@H](C)O[C@@H](C)C4)nc3n2)cc1CO [KU0063794] (first compound 10 µM, partner dose 0.1 µM) |  |  |  |  |  |  | 61.8% | 83.2% | 92.2% | 100%
